This passage reports binding signal results from paper PMC12136788.

Some of the results follow.

T1: UNK ZnF1-3 (human, UniProt Q9C0B0 31-174)
T1 sequence: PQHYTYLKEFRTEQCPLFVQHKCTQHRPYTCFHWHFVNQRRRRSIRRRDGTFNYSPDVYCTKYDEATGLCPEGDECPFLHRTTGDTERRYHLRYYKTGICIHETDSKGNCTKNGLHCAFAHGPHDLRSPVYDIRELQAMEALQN

B1: chr2:175094126:175094127:-_ENSG00000138430_ENST00000344357|hu_mus|motif|central (ssRNA)
RNA: GGGAGUUCUACAGUCCGACGAUCUCUGCUCUCAUUAGGAUCAAUAGUGCAGAAUGGGAAGUUUUCUGCUGAAGCCUGACGGUUGGUUAAUACAUUGAAGAAGGUAGACUUCCCAACAUUUGGCAAUCCAACGAUACCAAUUUUCAACAGAGGAUUGAGCAUCA
B2: chrX:20248820:20248821:+_ENSMUSG00000001924_ENSMUST00000001989|mus_mus|mus_mus_mus_hu_True|78_98 (ssRNA)
RNA: GGGAGUUCUACAGUCCGACGAUCGGCGAAGUCCGUCAUCACAAAGUCAGGUUCUGCCAGUGAUGCUACCAAGGAUUUAAAGCUAAUCUUCUUAGGUACUUUGACCUGACUGACGAUGCCUCCACGGAUGUAGUCGGAGAAGUUCAACAGAGGAUUGAGCAUCA
B3: chr7:65705844:65705845:+_ENSG00000169902_ENST00000304842|hu_mus|hu_hu_hu_mus_False|68_88 (ssRNA)
RNA: GGGAGUUCUACAGUCCGACGAUCAAACGGAUCUUUGUUACAUAAAUAAGGGGCUGGCUCCCCAUGUUUAACGAUAACCUCCAGAAGGAAGGCUUGCAUGGCAGAAUCUAGCACUUCAUCUGUGACACCCGCCUCAUCCAAGCGCAACAGAGGAUUGAGCAUCA
B4: chr1:213178640:213178641:-_ENSG00000174606_ENST00000366962|hu_mus|FALSE|FALSE (ssRNA)
RNA: GGGAGUUCUACAGUCCGACGAUCAGCUAUGCAGAUGGAUGGAGAGGCAGCGCGUGGGAUCUUGGGCUGCAGGAGUAAAACCAAUCCAAUGUUGUCCCUGUCCAGCAGAGGAAUGUCGCGGCGGCAGAACUCCACUGGGUUCACCAACAGAGGAUUGAGCAUCA
B5: chr1:39494564:39494565:+_ENSG00000168653_ENST00000372967|hu_hu|hu_hu_hu_mus_True|48_48 (ssRNA)
RNA: GGGAGUUCUACAGUCCGACGAUCAUGCAUUCGCCUCAUCGUUUUGUACCGAAGCAAGCACUCUUCGAAGUCAUCGAACUCUAUCUUGCACUCUUUCUUCGCCCGGGUCCCACCGAUCCCGUGUGCACACUCUAUCCACUCUUUCAACAGAGGAUUGAGCAUCA
B6: chr8:29959424:29959425:+_ENSG00000104660_ENST00000321250|hu_mus|FALSE|FALSE (ssRNA)
RNA: GGGAGUUCUACAGUCCGACGAUCGAAGGGCACAUCCAAGCAUCAGGAACAUCAGCCCGAUCGCUCCUCCAAAGGACAAACUAAUUAAAGCUUUGAUGCCCGCCAUGGCGGUGACGUCGCUCCUGGCUCCACGACCCGGGCGGUCAACAGAGGAUUGAGCAUCA
B7: 71073978_71084756_593_CDS_ENSMUSG00000027012_ENSMUST00000112142|mouse|control|control (ssRNA)
RNA: GGGAGUUCUACAGUCCGACGAUCCUCCUCCUCAUCUUCUUUGGGUUGAGCUGUAACCGGGGUCUGAGUUUCCUUUGUGUAUGUGACGAUUUCUCGAGGGGGAAAGUCAACUUGAGUAAUUUUGGCCAUUCCAAGUUUAAUAGGCAACAGAGGAUUGAGCAUCA
B8: 64993253_64993373_409_3pUTR_ENSMUSG00000029920_ENSMUST00000031984|mouse|control|control (ssRNA)
RNA: GGGAGUUCUACAGUCCGACGAUCCUUCAGCACUAAGAGAAAUUGGUGACGAAGGACGGGCCUGGGAGGGCUGAGGGGCUGCUUCGGGUGCUUCCUCAAUCUUACUCCUUUUCUCAAAGCGAAAACGGUCCAAGUUGAAAAGAUCAACAGAGGAUUGAGCAUCA
B9: chr11:29608675:29608676:+_ENSMUSG00000020458_ENSMUST00000102843|mus_hu|motif|central (ssRNA)
RNA: GGGAGUUCUACAGUCCGACGAUCUUCUGUAUCGGAAGGAAGUUUUUUCUCAGCUUCUUUCACAAGAACUUUGGGUUUAACGGUGCUCUCUAUCUCUGCUUGAGUGGCCAAAGCAGAAACAUCUGGAGGCAAUAAGAGCACCUUCAACAGAGGAUUGAGCAUCA
B10: chr5:67447025:67447026:+_ENSMUSG00000037736_ENSMUST00000038188|mus_hu|motif|central (ssRNA)
RNA: GGGAGUUCUACAGUCCGACGAUCCUGCACCUAUAUGGAACCCACAUGCAAAGAACCCAUCUAGCAUGUAAUAAAUAAUCGCGGGCCAUACUCAAUAAGACACGGAAAAAUUAUUGCUUACAUAACAGAAAAACAUCUACUUGACAACAGAGGAUUGAGCAUCA
B11: 10517792_10517912_4758_3pUTR_ENSG00000160049_ENST00000377038|human|control|control (ssRNA)
RNA: GGGAGUUCUACAGUCCGACGAUCCUUAGACUAACUGAGAGGUUAGACUCAAGCCGGUUUGUCUCACUCCCAAAUCCACAGGACAUUUUCCAUUAUCCACCCAGUUCAGCCGCUUGGUGGGCUUGCUUCAAGUACAGAAUAUUACAACAGAGGAUUGAGCAUCA
B12: chr11:77340908:77340909:-_ENSG00000074201_ENST00000525064|hu_hu|hu_hu_hu_mus_True|18_48 (ssRNA)
RNA: GGGAGUUCUACAGUCCGACGAUCGUUUGGAUCCCUGGACACCGCAUGUAAACUAAUGGUGGGGUAUUCCAGUGAGAAUCCUAAUCCAGAGCCAUCUAACCAGGACAGGCGGCUCUCAGCGAUGUAAAGCGUGCCGGUGCCGAGCAACAGAGGAUUGAGCAUCA
B13: chr1:115276673:115276674:-_ENSG00000009307_ENST00000339438|perfect_dup|FALSE|FALSE (ssRNA)
RNA: GGGAGUUCUACAGUCCGACGAUCUGUGAAUUCCACAUCAUCGCCAGGCUGUAAGGUUUCUAAGUCACCCUUAAAUUCACUAUAGUGAAAGAAUAUCUCUUUUACAACAUCACCUCUUUCAAUAAAGCCAAAUGCCUCCUUCAUCAACAGAGGAUUGAGCAUCA
B14: chr3:141904083:141904084:-_ENSMUSG00000028273_ENSMUST00000029941|mus_mus|motif|central (ssRNA)
RNA: GGGAGUUCUACAGUCCGACGAUCGCUUCCAUUUUGCAAUGUGGUAUCACCCUUGCUGUUCAUUGAUCUCCCAGUUCAUUACGGUCUGCAUAUAAUAUAAAUUCACUAGACCAUAGAUUAGCAGCUUUCAGGACAGAUGCCUUGCAACAGAGGAUUGAGCAUCA
B15: chr7:125262511:125262512:-_ENSMUSG00000030654_ENSMUST00000032888|mus_hu|FALSE|FALSE (ssRNA)
RNA: GGGAGUUCUACAGUCCGACGAUCGUAGAAGAAAUAAUACAGGAUUAAAACUGCAAAAGUAGUUAAUCAGUAGAAUAUGUAUGCACACAAAAAAUCCAGAUAGGAAGACAGGCUUAUUUACAAUGAAAGUAAGGUAAAAUUAACCAACAGAGGAUUGAGCAUCA
B16: chr16:8992458:8992459:-_ENSG00000187555_ENST00000381886|hu_mus|FALSE|FALSE (ssRNA)
RNA: GGGAGUUCUACAGUCCGACGAUCUUGUCUUGGCUUGAAGAAUUGUAGAAGAUCUCUUAAAGUACCUUCGUAAUUAUGCCUAAGAGGAUUACCGGGGCCGUCCCUAUAACCUUGAGACUUGAAAAACUGCAGCAGCAUGGGGUCCAACAGAGGAUUGAGCAUCA
B17: 12699133_12699253_60_3pUTR_ENSMUSG00000032625_ENSMUST00000046121|mouse|control|control (ssRNA)
RNA: GGGAGUUCUACAGUCCGACGAUCCGCCGCCGCCGCUGGCUGGCGGGGAUGCUGGCGGGGAUGCUGCCGCCGCUGCCAUGGCGCGCAGACUGGCAGGUCCUAGCGGCGAGGGACACAGCCGGCCGCAGGGGGCCCCAGCUGACACAACAGAGGAUUGAGCAUCA
B18: chr4:45007048:45007049:-_ENSMUSG00000049657_ENSMUST00000055028|mus_hu|motif|central (ssRNA)
RNA: GGGAGUUCUACAGUCCGACGAUCGUUCUGAUUUGCAGUAAAGUUAUUUCCUCUGCUCUUGUUAAGAAAAUUCGAAAUACGGAAAGUGGACUUAUGCUCUAGGUUAUUUGUGACUUCCAAAAUAUGGAUAUCACCUACCCUGUCCAACAGAGGAUUGAGCAUCA
B19: chr11:29606814:29606815:+_ENSMUSG00000020458_ENSMUST00000102843|mus_hu|FALSE|FALSE (ssRNA)
RNA: GGGAGUUCUACAGUCCGACGAUCCAAUUUAGUAAGAGCUGUAGGUAACUCUUGUUGAUUAUGAAGGAUGUUAUUACUAACUAACUUCUCUUCUUCAUCUUUAUUUUUCACGAUUAUUUCUUCCCUAGGAUUUGCUACUAUUACCAACAGAGGAUUGAGCAUCA
B20: chr1:220276048:220276049:+_ENSG00000067704_ENST00000302637|hu_hu|hu_hu_hu_mus_True|68_78 (ssRNA)
RNA: GGGAGUUCUACAGUCCGACGAUCGCAAAUUGCCUGGUUGGCGGGAAUUGUCCAAGGUUGUGUGGUCCAGACCAAAACGCUAACAGGGGAUGAGGCAUCUGUAAGAGACUCCAACUUCGGAGGAGGUCUCAGGAGGGGGAAUCUCAACAGAGGAUUGAGCAUCA
B21: chr2:168009442:168009443:-_ENSMUSG00000051149_ENSMUST00000088001|mus_mus|motif|central (ssRNA)
RNA: GGGAGUUCUACAGUCCGACGAUCGCGAUUACAGUAGAGGCAUUUGCUAGUAAAAUUGUGUAUUUUCAUAAUGUAGUUAGCGGCGGCUGGGACUUUCUCAGCUUUAUGCUCCUUUUCGAAGUGAACGCUAUAGACAUUCUCAGGCAACAGAGGAUUGAGCAUCA
B22: chr12:49579495:49579496:-_ENSG00000167552_ENST00000550767|hu_mus|FALSE|FALSE (ssRNA)
RNA: GGGAGUUCUACAGUCCGACGAUCGGCCCCAUCAAAUCUGAGGGAAGCAGUGAUGGAAGACACAAUUUGACCUAUCAACCUGUUUAGGUUAGUGUAGGUUGGGCGCUCAAUGUCGAGGUUUCUACGACAGAUAUCAUAGAUGGCCAACAGAGGAUUGAGCAUCA

For the experiment, the target named is T1, UNK ZnF1-3. In words: nsRBNS (natural sequence RNA bind-n-seq); RBNS binding buffer (assumed for nsRBNS): 25 mM Tris pH 7.5, 150 mM KCl, 3 mM MgCl2, 0.01% Triton X-100, 500 ug/ml BSA, 20 U/ml SUPERase-In, 4 C; UNK is unkempt and MSI1 is Musashi-1; names of the RNAs are library labels; protein concentration not given here; high values mean tight binding.
B1 returned a binding signal of 1.32 enrichment R.

Consider B2, for which the binding signal came to 0.745 enrichment R.

For the molecule B3, the binding signal amounted to 0.811 enrichment R.

In turn, B4 yielded a binding signal of 1.82 enrichment R.

As for B5, the binding signal turned out to be 0.689 enrichment R.

As for B6, the binding signal came out at 1.33 enrichment R.

B7: the binding signal worked out at 1.01 enrichment R.

As to B8, the binding signal came to 1.21 enrichment R.

For B9, the binding signal came out at 0.249 enrichment R.

Turning to B10, the binding signal came out at 1.52 enrichment R.

In the case of B11, the binding signal was determined as 0.866 enrichment R.

B12 registered a binding signal of 0.941 enrichment R.

For B13, the binding signal is 1.29 enrichment R.

For B14, the binding signal amounted to 1.14 enrichment R.

B15 registered a binding signal of 1.83 enrichment R.

With B16, the binding signal worked out at 1.67 enrichment R.

B17 registered a binding signal of 0.729 enrichment R.

In turn, B18 displayed a binding signal of 1.02 enrichment R.

Consider B19, for which the binding signal amounted to 0.51 enrichment R.

The molecule B20 displayed a binding signal of 1.35 enrichment R.

The molecule B21 registered a binding signal of 0.826 enrichment R.

B22 came in with a binding signal of 1.2 enrichment R.
